Results published in paper PMC4336329 (PLoS ONE, 2015).
Among all 310,000 compounds or so, about 2,200 (0.71%) showed an effect of 50% or more. Effects have a minus sign here. The list shows a part of the results.

target: human ether-à-go-go-related gene (hERG) potassium channel (human, UniProt Q12809); test: primary screen, population patch clamp on CHO cells stably expressing hERG
Sequence (Q12809 whole entry, looked up): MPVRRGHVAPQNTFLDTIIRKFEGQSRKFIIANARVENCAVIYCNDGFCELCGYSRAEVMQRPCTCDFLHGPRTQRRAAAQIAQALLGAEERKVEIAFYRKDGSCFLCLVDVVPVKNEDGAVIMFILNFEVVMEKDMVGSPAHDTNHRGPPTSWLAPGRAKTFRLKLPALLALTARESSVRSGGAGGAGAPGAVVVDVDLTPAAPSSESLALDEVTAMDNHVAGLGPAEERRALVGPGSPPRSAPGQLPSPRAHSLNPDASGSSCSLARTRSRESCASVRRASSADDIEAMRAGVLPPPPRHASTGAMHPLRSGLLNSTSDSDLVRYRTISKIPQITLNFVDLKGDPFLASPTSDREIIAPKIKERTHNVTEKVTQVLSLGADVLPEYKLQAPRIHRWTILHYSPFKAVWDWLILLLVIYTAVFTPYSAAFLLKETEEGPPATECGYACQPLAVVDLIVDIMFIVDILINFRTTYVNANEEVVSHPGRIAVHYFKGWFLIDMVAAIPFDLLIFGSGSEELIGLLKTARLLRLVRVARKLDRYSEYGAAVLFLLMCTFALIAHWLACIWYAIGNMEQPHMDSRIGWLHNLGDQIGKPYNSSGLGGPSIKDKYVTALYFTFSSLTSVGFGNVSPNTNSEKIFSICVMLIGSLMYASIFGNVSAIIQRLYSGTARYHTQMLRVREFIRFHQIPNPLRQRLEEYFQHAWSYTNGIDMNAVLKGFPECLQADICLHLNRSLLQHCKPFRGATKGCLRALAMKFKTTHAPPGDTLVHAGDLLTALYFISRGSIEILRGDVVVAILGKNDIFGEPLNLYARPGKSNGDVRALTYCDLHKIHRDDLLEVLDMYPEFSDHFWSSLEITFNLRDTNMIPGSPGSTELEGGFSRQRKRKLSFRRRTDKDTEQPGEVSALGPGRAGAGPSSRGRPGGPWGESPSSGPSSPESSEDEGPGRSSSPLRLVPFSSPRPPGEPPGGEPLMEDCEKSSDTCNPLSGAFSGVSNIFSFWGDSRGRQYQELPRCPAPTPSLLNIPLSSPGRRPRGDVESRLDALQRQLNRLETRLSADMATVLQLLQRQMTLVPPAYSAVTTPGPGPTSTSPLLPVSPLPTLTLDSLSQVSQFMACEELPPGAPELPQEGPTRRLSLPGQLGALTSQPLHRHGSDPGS

| Structure (SMILES) | hERG current change (%, negative = inhibition) at 1uM |
| --- | --- |
| N#Cc1ccc(CSc2nnc(-c3cccs3)n2-c2ccccc2)cc1 | -20.8% |
| COc1ccc(C(=O)Nc2ccc(N3CCOCC3)cc2)cc1S(=O)(=O)NC1CCCC1 | 6.31% |
| Cc1cccc(C)c1NC(=O)c1cnn(-c2ccccc2)c1C | 11.1% |
| Cc1ccc(S(=O)(=O)NCc2ccccc2)cc1C(=O)N1CC(C)CC(C)C1 (stereo not shown) | -2.4% |
| COc1ccc(N2CCN(C(=O)COC(=O)CCOc3ccccc3C)CC2)cc1 | -25.7% |
| COc1ccc(S(=O)(=O)N2CCOC2CNC(=O)C(=O)NCCCN2CCOCC2)cc1C (stereo not shown) | 11.7% |
| COc1cc(CCC(=O)OCC(=O)Nc2ccccc2C#N)cc(OC)c1OC | 8.68% |
| CCCCCCCNC(=O)C1(CC2CC(c3cccc(Br)c3)=NO2)CCN(C(=O)CCCCCBr)CC1 (stereo not shown) | -72% |
| CC(=O)Nc1ccc(Oc2cc(N)cc([N+](=O)[O-])c2)cc1 | 9.97% |
| O=C(Cc1ccc(Cl)cc1)Nc1ccccc1Sc1ccccc1 | 4.55% |
| C#CCOCCOCCOCCNc1nc(N2CCN(C(=O)CCCCCCCCCCNC(=O)Cn3cc(CCCCCN)nn3)CC2)nc(N2CCN(C(=O)CCCCCCCCCCNC(=O)Cn3cc(C[C@@H](C)O)nn3)CC2)n1 | 11.4% |
| COc1ccc(NC(=O)CN(c2ccc(Cl)cc2)S(C)(=O)=O)cc1OC | 8.19% |
| CCOC(=O)N1CCC(Nc2nc3ccccc3n3cnnc23)CC1 | 7.71% |
| Cc1ccc(CNC(=O)C2=NNC(=O)CC2)cc1 | 4% |
| O=C(Cc1ccc(S(=O)(=O)N2CCOCC2)s1)Nc1cc(C(F)(F)F)cc(C(F)(F)F)c1 | 16.4% |
| CC(=O)N1N=C(c2ccc(Cl)cc2)OC1(C)C | 11.4% |
| CCn1c(NC(=O)Nc2ccccc2OC)nc2ccccc21 | -6.96% |
| CC1(C)CC(NC(=O)COc2ccc(Br)cc2Cl)CC(C)(C)N1 | 10.8% |
| c1ccc2c(-c3csc(-c4ccncc4)n3)c[nH]c2c1 | 10.8% |
| Cc1ccc(-n2c(=O)[nH]c3c(C(N)=O)nc(-c4ccc(C)o4)nc32)cc1 | 9.41% |
| Cc1ccc(C(=O)NC(C(=O)Nc2ccccc2)c2ccccc2)cc1 (stereo not shown) | 17.3% |
| O=C(Cn1c(O)c(/C=C2\C=Nc3ccc(Br)cc32)sc1=O)N1CCCC1 | 2.96% |

| Structure (SMILES) | hERG current change (%, negative = inhibition) at 1uM |
| --- | --- |
| COc1ccc(OCC(=O)Nc2nc3ccc(NC(C)=O)cc3s2)cc1 | 11.6% |
| COc1ccc2[nH]c3ccc(OC)cc3c2c1 | 10.5% |
| Cc1ccc2[nH]c3c(c2c1)CCN1C(=O)OC(C)(C)C31C (stereo not shown) | 11.4% |
| Cc1ccc(NC(=O)c2cc(S(=O)(=O)NCCC3=CCCCC3)ccc2F)cc1F | 18% |
| COc1ccc(NC(=O)CS(=O)c2ccc(Br)cc2)cc1 (stereo not shown) | 4.44% |
| CC(=O)N1CCc2cc(S(=O)(=O)NCCC(=O)NC3CCCc4ccccc43)ccc21 (stereo not shown) | 13.1% |
| Clc1ccc(Nc2nc(C3CC3)cs2)cc1 | 11.4% |
| Oc1ccccc1-c1n[nH]c(=S)n1Cc1ccco1 | 8.7% |
| CN(C)S(=O)(=O)c1ccc(N2CCCC2)c(C(=O)NC2(C)CCS(=O)(=O)C2)c1 (stereo not shown) | 15% |
| CCOC(=O)c1c(C2CCN(C(=O)OCC)CC2)nc2ccccn12 | -11.3% |
| Cc1ccc(S(=O)(=O)Nc2ccc(N=Nc3ccc(O)cc3)cc2)cc1 | 19.4% |
| CCNC(=S)NNC(=O)c1c(Cl)c(C)nn1C | 5.71% |
| Cc1cc(C)cc(C(=O)N(CCc2ccccc2)C2CC3CCC(C2)N3C)c1.Cl (stereo not shown) | -18% |
| CCN(CC)CC(=O)Nc1ccc(C)cc1C(=O)c1ccccc1 | 5.76% |
| COc1ccc(-c2ccc(NS(=O)(=O)c3cc([N+](=O)[O-])c(C)c([N+](=O)[O-])c3)cc2)nn1 | 9.27% |
| CC1CCc2c(sc(Nc3nc4c(F)cccc4s3)c2C(N)=O)C1 (stereo not shown) | 21.2% |
| NS(=O)(=O)c1ccc(CCNC(=O)CSc2ccc([N+](=O)[O-])cc2)cc1 | 5.23% |
| CCOc1ccc(CNC(=O)c2ccc3c(c2)N(CC)CCS3)cc1 | 18.4% |
| O=C(COc1cccc2cccnc12)Nc1nccs1 | 1.73% |
| CN(C)S(=O)(=O)c1cc(C(=O)NCCCn2ccc3ccccc32)ccc1Cl | 1.74% |
| CCN(CC)C(=O)c1sc(NC(=O)c2cccs2)c(C#N)c1C | 15.5% |
